# Measurements: the supplement of paper PMC8728848
# The other results are listed elsewhere or left out.
# B1: PLU (Photorhabdus luminiscence) (protein)
# chain: HHHHHHENLYFQSSIVFASIDPRSNPLQTSSQNYVDIPGLKLDVSKYSNSPCLTALITLNIPTPYASGNNFPGGNFAIVTDQGEQLAYGGFTYSSKIPENSGRMPFTLVARYSLASNVSTIKAQWSNIRGSTVHIDSYASISAVIQCNQLV
# What was measured:
# Test in all cases: glycan array binding signal (z-score within array); higher = stronger binding
# Settings in all cases: glycan notation: IUPAC condensed, linker removed
# [1] = target: Neu5Ac(a2-3)Gal(b1-3)GalNAc
# Summary of the method: (§1)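 Glycan array data came from 3228 arrays in the Consortium for Functional Glycomics database, and only arrays with an available protein sequence were kept. Glycan names were put into IUPAC-condensed notation, and columns mapping to the same glycan were averaged. The binding signal is a within-array Z-score, averaged across arrays of one protein sequence run at different concentrations or buffers and across linkers. A negative Z-score can be read as non-binding.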
# [2] = target: Neu5Ac(a2-3)Gal(b1-3)GalNAc(b1-3)Gal(a1-4)Gal(b1-4)Glc
# Summary of the method: as §1
# [3] = target: Neu5Ac(a2-3)Gal(b1-3)GalNAc(b1-4)Gal(b1-4)Glc
# Summary of the method: as §1
# [4] = target: Neu5Ac(a2-3)Gal(b1-3)GalNAc(b1-4)[Neu5Ac(a2-3)]Gal(b1-4)Glc
# Summary of the method: as §1
# [5] = target: Neu5Ac(a2-3)Gal(b1-3)GalNAc(b1-4)[Neu5Ac(a2-8)Neu5Ac(a2-3)]Gal(b1-4)Glc
# Summary of the method: as §1
# [6] = target: Neu5Ac(a2-3)Gal(b1-3)GalNAc6S
# Summary of the method: as §1
# [7] = target: Neu5Ac(a2-3)Gal(b1-3)GlcNAc
# Summary of the method: as §1
# [8] = target: Neu5Ac(a2-3)Gal(b1-3)GlcNAc(b1-2)Man
# Summary of the method: as §1
# [9] = target: Neu5Ac(a2-3)Gal(b1-3)GlcNAc(b1-2)Man(a1-3)[GlcNAc(b1-4)][Neu5Ac(a2-3)Gal(b1-3)GlcNAc(b1-2)Man(a1-6)]Man(b1-4)GlcNAc(b1-4)GlcNAc
# Summary of the method: as §1
# [10] = target: Neu5Ac(a2-3)Gal(b1-3)GlcNAc(b1-2)Man(a1-3)[Neu5Ac(a2-3)Gal(b1-3)GlcNAc(b1-2)Man(a1-6)]Man(b1-4)GlcNAc(b1-4)GlcNAc
# Summary of the method: as §1
# [11] = target: Neu5Ac(a2-3)Gal(b1-3)GlcNAc(b1-2)[Neu5Ac(a2-3)Gal(b1-3)GlcNAc(b1-4)]Man(a1-6)[Neu5Ac(a2-3)Gal(b1-3)GlcNAc(b1-2)Man(a1-3)]Man(b1-4)GlcNAc(b1-4)GlcNAc
# Summary of the method: as §1
# [12] = target: Neu5Ac(a2-3)Gal(b1-3)GlcNAc(b1-3)Gal(b1-3)GlcNAc
# Summary of the method: as §1
# [13] = target: Neu5Ac(a2-3)Gal(b1-3)GlcNAc(b1-3)Gal(b1-4)GlcNAc
# Summary of the method: as §1
# [14] = target: Neu5Ac(a2-3)Gal(b1-3)GlcNAc(b1-3)GalNAc
# Summary of the method: as §1
# [15] = target: Neu5Ac(a2-3)Gal(b1-3)GlcNAc(b1-6)GalNAc
# Summary of the method: as §1
# [16] = target: Neu5Ac(a2-3)Gal(b1-3)GlcNAc6S
# Summary of the method: as §1
# [17] = target: Neu5Ac(a2-3)Gal(b1-3)[Fuc(a1-4)]GlcNAc
# Summary of the method: as §1
# [18] = target: Neu5Ac(a2-3)Gal(b1-3)[Fuc(a1-4)]GlcNAc(b1-3)Gal(b1-3)[Fuc(a1-4)]GlcNAc
# Summary of the method: as §1
# [19] = target: Neu5Ac(a2-3)Gal(b1-3)[Fuc(a1-4)]GlcNAc(b1-3)Gal(b1-4)[Fuc(a1-3)]GlcNAc
# Summary of the method: as §1
# [20] = target: Neu5Ac(a2-3)Gal(b1-3)[GlcNAc(b1-6)]GalNAc
# Summary of the method: as §1
# [21] = target: Neu5Ac(a2-3)Gal(b1-3)[Neu5Ac(a2-6)]GalNAc
# Summary of the method: as §1
# [22] = target: Neu5Ac(a2-3)Gal(b1-3)[Neu5Ac(a2-6)]GlcNAc(b1-3)[Fuc(a1-3)[Gal(b1-4)]GlcNAc(b1-6)]Gal(b1-4)Glc
# Summary of the method: as §1
binder,measurement,setting,value
B1,glycan array binding signal (z-score),[1],-0.339
same,glycan array binding signal (z-score),[2],-0.254
same,glycan array binding signal (z-score),[3],-0.357
same,glycan array binding signal (z-score),[4],-0.31
same,glycan array binding signal (z-score),[5],-0.329
same,glycan array binding signal (z-score),[6],-0.319
same,glycan array binding signal (z-score),[7],-0.264
same,glycan array binding signal (z-score),[8],-0.334
same,glycan array binding signal (z-score),[9],-0.297
same,glycan array binding signal (z-score),[10],-0.307
same,glycan array binding signal (z-score),[11],-0.104
same,glycan array binding signal (z-score),[12],-0.228
same,glycan array binding signal (z-score),[13],-0.357
same,glycan array binding signal (z-score),[14],-0.264
same,glycan array binding signal (z-score),[15],-0.281
same,glycan array binding signal (z-score),[16],-0.277
same,glycan array binding signal (z-score),[17],-0.309
same,glycan array binding signal (z-score),[18],-0.315
same,glycan array binding signal (z-score),[19],-0.181
same,glycan array binding signal (z-score),[20],-0.346
same,glycan array binding signal (z-score),[21],-0.203
same,glycan array binding signal (z-score),[22],-0.327
